Source: PubChem BioAssay AID504832 (National Center for Advancing Translational Sciences (NCATS), 2011)
In all, about 310,000 compounds went through this assay and about 18,000 (5.8%) were called active. Inconclusive means that the source gave no clear call. Such entries were picked first, then a sample of the others. Calls come from the whole dose curve; as a rule, active = well fitted inhibition curve with a large enough effect; inconclusive = small, poorly fitted or top-dose-only effect, or another doubt; inactive = no such curve, though single readings can be large or run the other way. No potency is given beside an inconclusive call; the fits are too rough.

Assay: Primary qHTS for delayed death inhibitors of the malarial parasite plastid, 48 hour incubation
Settings: P. falciparum luciferase growth in erythrocytes; series mostly up to 28.7 µM
Procedure, shortened: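 Compounds are pin-transferred into medium, infected erythrocytes (2% hematocrit, 0.1% parasitemia final) are added, and plates sit one parasite generation at 37 C in 5% CO2. Detection reagent is then added and luminescence measured.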
Potency is the fitted concentration of half-maximal effect; tags give direction and shape of the fitted curve.

SMILES | Potency
COc1ccc(COc2cc(-c3cccc(OC)c3)nc3ccc(NC(=O)c4ccc(N(C)C)cc4)cc23)cc1 | active: 2.33 µM
COc1cccc(C(C(=O)NC2CCCC2)N(CCC(C)C)C(=O)CCC(=O)Nc2cc(C)on2)c1 (stereo not given) | inconclusive [inhibitor, partial curve, poor fit]
CC1CCN(CC#CCOc2ccc(Cl)cc2)CC1 | inactive
CNS(=O)(=O)c1cn(CC(=O)NCc2ccc(OC)cc2)cc1S(=O)(=O)NC | inactive
CNC(=S)NC12CC3CC(CC(C3)C1)C2 | inconclusive [inhibitor, partial curve, poor fit]
CC1CCN(c2nc(CN3CCCCC3)nc3scc(-c4ccccc4)c23)CC1 | active: 2.33 µM
COc1ccc(CN(C)Cc2c(O)ccc3ccccc23)cc1 | inconclusive [inhibitor, partial curve]
Nc1nonc1C(=O)NCCNC(=O)c1ccc(Cl)cc1 | inactive
Cc1ccc(C(=O)N/N=c2\sc3ccccc3n2C)cc1 | inactive
CCOC(=O)C1C(O)=CC(=O)CC1c1ccccc1 (stereo not given) | inconclusive [inhibitor, single point]
O=C(C1CCCN(S(=O)(=O)c2ccccc2)C1)N1CCN(c2ncccn2)CC1 (stereo not given) | inconclusive [inhibitor, single point]
CCOc1ccc(NC(=O)CN(C)C(=O)CC2OC(=O)c3ccccc32)cc1OCC (stereo not given) | inconclusive [inhibitor, single point]
COCCCN(C(=O)Cc1csc(-c2cccc(Cl)c2)n1)c1c(N)n(Cc2ccccc2)c(=O)[nH]c1=O | inconclusive [inhibitor, full curve, poor fit]
CC(C)NC(=S)N/N=C/c1sc(N2CCCCC2)nc1-c1cccs1 | inactive
Cc1ccc(C(C(=O)NC(C)(C)C)N(Cc2cccnc2)C(=O)C(=O)NC2CCCCC2)o1 (stereo not given) | inconclusive [inhibitor, partial curve, poor fit]
Cc1ccc2ncnc(NCCCCCC(=O)O)c2c1 | inactive
COc1cc(C(=O)NCCCc2nc3ccccc3n2Cc2cc(C)ccc2C)cc(OC)c1OC | inconclusive [inhibitor, partial curve, poor fit]
CCCN(C(=O)c1ccc(N2CCCC2=O)cc1)c1c(N)n(Cc2ccccc2)c(=O)[nH]c1=O | inconclusive [inhibitor, single point]
COc1ccc(/C=C(\NC(=O)c2ccc(C)cc2)C(=O)NCCCn2ccnc2)cc1 | inactive
O=C1CCCC2=C1C(c1cccs1)Nc1ccc3ncccc3c12 (stereo not given) | inactive
Cc1ccc(C(=O)c2c3ccc(C(F)(F)F)cc3nn2CCC(N)=O)cc1 | inconclusive [inhibitor, single point]
CC1CC(CC(=O)NC(=S)Nc2ccccc2Cl)C(=O)O1 (stereo not given) | inactive
CCN1C(=O)[C@@H]2[C@H](C1=O)[C@@H]1C(=O)Nc3ccccc3C(=O)N1[C@@H]2c1cccc(OC)c1 | inactive
O=C(CSc1nc2ccccc2c(=O)n1-c1ccccc1)NCC1CCCO1 (stereo not given) | inconclusive [inhibitor, partial curve, poor fit]

SMILES | Potency
O=C(c1cccc(C(=O)N2CCN(c3ccccc3F)CC2)c1)N1CCN(c2ccccc2F)CC1 | active: 13.1 µM
CCOC(=O)C1CCN(c2cc(C)nc3ccc(OC)cc23)CC1 | inconclusive [inhibitor, partial curve, poor fit]
COc1ccc(-c2noc(N3CCC(C(=O)Nc4cccc(OC)c4)CC3)n2)cc1 | inconclusive [inhibitor, partial curve]
COc1ccc(N2CCN(C(=O)CCN3C(=O)c4ccccc4S3(=O)=O)CC2)cc1 | inconclusive [inhibitor, full curve]
COc1ccc(NC(=O)C2CC2)cc1OC1CCCC1 | inconclusive [inhibitor, partial curve, poor fit]
CN(Cc1c(F)cccc1Cl)c1ccc(S(=O)(=O)N2CCOCC2)cn1 | inconclusive [inhibitor, full curve, poor fit]
O=C(NC(=S)NC(CO)c1ccccc1)c1ccc(F)cc1 (stereo not given) | inactive
Cc1ccc(S(=O)(=O)N2CCCCC2)cc1C(=O)NCCC1=CCCCC1 | inconclusive [inhibitor, full curve, poor fit]
CC(C)OCCCn1c(=NC(=O)c2cccs2)c(C#N)cc2c(=O)n3ccccc3nc21 | inconclusive [inhibitor, full curve, poor fit]
COc1ccc(C(NC(=O)CN2C(=O)NC3(CCc4ccccc43)C2=O)c2ccc(OC)cc2)cc1 (stereo not given) | active: 10.4 µM
Cc1c(C(=O)N(C)C(C)c2ccccn2)oc2c(F)cccc12 (stereo not given) | inactive
C1CCC(NC2=NCCC2)CC1 | inactive
COc1ccc(CN2CCc3ccccc3C2)cc1Br | inconclusive [inhibitor, partial curve, poor fit]
CCOC(=O)Cc1cc(-c2ccc(F)cc2)nc2ccc3ccccc3c12 | inactive
O=C(NCc1ccc2c(c1)OCO2)C1CCC(CNc2c(N3CCCCC3)c(=O)c2=O)CC1 (stereo not given) | inconclusive [inhibitor, partial curve, poor fit]
Cc1ccc(NC(=O)c2ccccc2OCC(=O)c2ccccc2)cc1 | inconclusive [inhibitor, single point]
CC1=C(C(N)=O)C(c2ccccn2)n2nc(-c3ccccc3Cl)nc2N1 (stereo not given) | inactive
COc1ccc(Cn2c(O)c(C=Nc3ccccc3C(=O)O)c3ccccc3c2=O)cc1 | inconclusive [inhibitor, partial curve]
COc1ccc(OC(C)C(=O)Nc2ccc([N+](=O)[O-])cc2)cc1 (stereo not given) | inconclusive [inhibitor, partial curve]
COc1ccc(N2CCN(CCNC(=O)CCS(=O)(=O)c3cccc4nsnc34)CC2)cc1 | inactive
O=C1NCN(c2ccccc2)C12CCN(CCCC(c1ccc(F)cc1)c1ccc(F)cc1)CC2 | active: 1.9 µM
CCOc1ccc(NC(=S)N(CCN2CCOCC2)Cc2ccc3c(c2)CCCN3CC)cc1 | inconclusive [inhibitor, partial curve]
Oc1ccc2ccccc2c1N=Nc1ccccn1 | inconclusive [inhibitor, partial curve, poor fit]
Cc1nc2ccccc2nc(=O)c1NNc1ccccc1 | inactive

SMILES | Potency
O=S(=O)(Nc1ccc(-n2cnnn2)cc1)c1cccc(Cl)c1 | inconclusive [inhibitor, partial curve, poor fit]
O=C(CCc1nnc(CCCCc2ccccc2)o1)NC(c1cccnc1)C(F)(F)F (stereo not given) | inconclusive [inhibitor, single point]
O=C(NCc1cccnc1)c1ccc(NC(=O)c2cccc([N+](=O)[O-])c2)cc1 | inconclusive [inhibitor, single point]
O=S(=O)(c1cccc(-c2cn3cccnc3n2)c1)N1CCOCC1 | inconclusive [inhibitor, single point]
CCOc1ccc(-c2nc(N)ncc2-c2ccccc2)c(O)c1 | inconclusive [inhibitor, single point]
Cc1ccc(C(=O)C(C)OC(=O)CN2C(=O)NC3(CCCC3)C2=O)cc1C (stereo not given) | inactive
CCOC(=O)c1nn(-c2cccc(OC)c2)c2nc(Nc3ccccc3)cc(=O)n12 | inactive
Cc1ccsc1C1NC(=O)c2ccccc2N1 (stereo not given) | inactive
Cc1ccc(S(=O)(=O)N2CCSC2C(=O)O)cc1 (stereo not given) | inactive
CSc1ccc(CN(C)C(=O)CCNS(=O)(=O)c2ccc(C)c(C)c2)cc1 | active: 3.7 µM
CCOc1ccc(NC(=O)CN(C)C(=O)CCC2CCCCC2)cc1OCC | inconclusive [inhibitor, single point]
COc1nsnc1NS(=O)(=O)c1ccc(NC(=S)NC(=O)c2cccnc2)cc1 | inconclusive [inhibitor, partial curve]
O=C(NC(=S)Nc1ccccc1N1CCOCC1)c1ccco1 | inactive
COc1ccc(CN(C)Cc2nc(Cc3ccccc3Cl)no2)cc1OC | inconclusive [inhibitor, partial curve, poor fit]
CCN(CC)c1ccc(/C=N/NC(=O)CNC(=O)C2COc3ccccc3O2)c(O)c1 (stereo not given) | inconclusive [inhibitor, partial curve, poor fit]
COc1ccc(NC(=O)CSc2nnc(CNC(=O)c3ccco3)n2-c2ccccc2OC)cc1 | inconclusive [inhibitor, full curve, poor fit]
CC(C)(C)OC(=O)N1CCC[C@H]1C(=O)Nc1ccc(C#N)cc1 | inactive
O=C(NCCC1=CCCCC1)c1cc(-c2ccncc2)nc2ccccc12 | inconclusive [inhibitor, single point]
CCCCCc1cc(=O)oc2c(C(CCN3CCCC3)c3cc(OC)c(OC)c(OC)c3)c(OC)cc(OC)c12 (stereo not given) | active: 2.62 µM
CCc1cc2c(COC(=O)c3cccc(S(C)(=O)=O)c3)cc(=O)oc2cc1O | inconclusive [inhibitor, single point]
O=C(c1cccs1)N1CCN(c2nnc(-c3ccccc3)c3ccccc23)CC1 | inconclusive [inhibitor, partial curve, poor fit]
CC(=O)C1=C(C)NC(SCC(=O)c2ccc(-c3ccccc3)cc2)=C(C#N)C1c1cccnc1 (stereo not given) | inconclusive [inhibitor, partial curve, poor fit]
